Test results taken from the RNAGym collection of RNA variant scans (doi:10.7554/elife.90254).
Read counts are not given, so values of variants with three or more changes are uncertain.

B1: LINE1-mini (parent)
chain: GGCAGAGCUCAACACAGCGUGGCAAAGUGGCUGUGGCUAGACUGCC

Variants of: B1
Experiment: self-cleavage, relative activity (ratio to wild type); higher = more cleavage; in vitro, sequencing; the parent is a self-cleaving ribozyme

| Variant | self-cleavage |
| --- | --- |
| C8G G21C G29U G30U G36C | 0.16 |
| C8G G21U A24U A25U | 0.01 |
| C8G G21U C46A | 0.13 |
| C8G G21U G29U | 0.05 |
| C8G G21U G40A G44U | 0.22 |
| C8G G21U U32C | 0.01 |
| C8G G22A A24U U32A C42A | 0.04 |
| C8G G22A G27A | 0.05 |
| C8G G22A G29C G44U | 0 |
| C8G G22A G33C U38A C46G | 0.02 |
| C8G G22A G40A | 0.08 |
| C8G G22C C23G G29A G30A G33C | 0.12 |
| C8G G22U C46U | 0.03 |
| C8G G27A C46A | 0.05 |
| C8G G27A U38A | 0.38 |
| C8G G27U C37U A39U C45G | 0.01 |
| C8G G27U C45G | 0.05 |
| C8G G27U C46G | 0.04 |
| C8G G29A A39G | 0.08 |
| C8G G29A C31U | 0.22 |
| C8G G29A C37U G40A | 0.04 |
| C8G G29C G40C C42U | 0.02 |
| C8G G29U C37U | 0.07 |
| C8G G29U C46A | 0.13 |

| Variant | self-cleavage |
| --- | --- |
| C8G G29U U38G G44C | 0.01 |
| C8G G30U A39G | 0.06 |
| C8G G30U G36A | 0.1 |
| C8G G30U U34C | 0.11 |
| C8G G33U C45A | 0.24 |
| C8G G33U G36A | 0.02 |
| C8G G33U U34A | 0.06 |
| C8G G33U U38G | 0.03 |
| C8G G35A C45U C46G | 0.02 |
| C8G G35C C37A | 0.03 |
| C8G G35U C46G | 0.06 |
| C8G G35U G40U C46U | 0.06 |
| C8G G36C G40U | 0.02 |
| C8G G40A C46G | 0.04 |
| C8G G44A C46G | 0 |
| C8G U9A A11U | 0 |
| C8G U9A A14G G22A G35U | 0.02 |
| C8G U9A C10U C18U G27A G44U | 0.03 |
| C8G U9A C23U G40A U43G | 0.38 |
| C8G U9A G17C G30C U34C | 0.11 |
| C8G U9A G22C | 0.17 |
| C8G U9A U34A G36C C45G | 0.08 |
| C8G U9A U34C A39C C42G | 0.02 |
| C8G U9C A39C G44U | 0.08 |

| Variant | self-cleavage |
| --- | --- |
| C8G U9C C42A | 0.02 |
| C8G U9C G29U | 0.04 |
| C8G U9C G30C | 0.01 |
| C8G U9C U20A U28A | 0.01 |
| C8G U9G A25U | 0.02 |
| C8G U9G G17C | 0.04 |
| C8G U9G G17C C18A A24U C46G | 0.15 |
| C8G U9G G19U C31G | 0.04 |
| C8G U9G G35U A39U | 0 |
| C8G U20A A39C | 0.05 |
| C8G U20A C45U | 0.04 |
| C8G U20A G21U C42G | 0.1 |
| C8G U20A G22C C31A U38G | 0.08 |
| C8G U20A G35U | 0.06 |
| C8G U20A G40U | 0.12 |
| C8G U20A U34A | 0.11 |
| C8G U20A U38A | 0.07 |
| C8G U20C A26U C37U | 0.05 |
| C8G U20C G21U G36U | 0.1 |
| C8G U20G A26U U28C C46G | 0 |
| C8G U20G C37U | 0.02 |
| C8G U20G G21U G29A C37A | 0.11 |
| C8G U20G G29C | 0.02 |
| C8G U20G G35C | 0.04 |

| Variant | self-cleavage |
| --- | --- |
| C8G U28A G30U | 0.16 |
| C8G U28A G33C C46G | 0.03 |
| C8G U28A G40A A41G C42A U43C C45G | 0.05 |
| C8G U28A U32A C42A | 0.02 |
| C8G U28C G33U | 0 |
| C8G U28C G36C U38G G40C U43A | 0 |
| C8G U28G G30C G35U | 0.01 |
| C8G U32A C42A | 0.04 |
| C8G U38A C42A | 0.08 |
| C8G U43G C45A | 0.03 |
| C8U A11C A12G U20A G27C C31G C37U A39C | 0 |
| C8U A11C A14C A16U | 0.01 |
| C8U A11C C23A G30A G44U | 0 |
| C8U A11C G21C G33C | 0.01 |
| C8U A11C G22A C23A C37A | 0.01 |
| C8U A11C G27C U28C G29A G35A | 0.02 |
| C8U A11C G40U G44U | 0 |
| C8U A11C G44U C45A | 0.03 |
| C8U A11G C18A G19U G33A U34C | 0.02 |
| C8U A11G G17C C18U U32A U38G | 0.01 |
| C8U A11G G21U | 0.01 |
| C8U A11G G22C A25U U34C U38G | 0.01 |
| C8U A11G G27C | 0.02 |
| C8U A11U C13G C37A A39G | 0.01 |

| Variant | self-cleavage |
| --- | --- |
| C8U A11U C13U A25C U32G | 0.01 |
| C8U A11U G21U C31A | 0 |
| C8U A12C A24U G44U C46U | 0.01 |
| C8U A12C A25U | 0.02 |
| C8U A12C A41C | 0 |
| C8U A12C C15A A24U C42U G44C | 0.03 |
| C8U A12C C18G C46A | 0.04 |
| C8U A12C C46A | 0.04 |
| C8U A12C G29U G35A | 0.01 |
| C8U A12C U28C C45A C46U | 0.01 |
| C8U A12G A24C G27C | 0.03 |
| C8U A12G A25C | 0.19 |
| C8U A12G A25C U43G | 0.01 |
| C8U A12G A25G C42G | 0.04 |
| C8U A12G C13A G17C G33U | 0.07 |
| C8U A12G C23U G29C U34G G40A | 0.01 |
| C8U A12U A25U G35U | 0.02 |
| C8U A12U C13A C23A U28C G40C | 0.05 |
| C8U A12U C13G G30U C37A | 0.04 |
| C8U A12U C13U A41U | 0.47 |
| C8U A12U U28A G29A | 0.06 |
| C8U A14C C18U A26C U28A U34A | 0.08 |
| C8U A14C C45G | 1.1 |
| C8U A14C G19A U28A | 0 |

| Variant | self-cleavage |
| --- | --- |
| C8U A14C G21A | 0.32 |
| C8U A14C G21A G36C | 0.05 |
| C8U A14C G22C U43G | 0 |
| C8U A14C G29U C31A U38A | 0.06 |
| C8U A14C G30U A39G | 0.02 |
| C8U A14C U20A G22A | 0.06 |
| C8U A14G A16U | 0.03 |
| C8U A14G C23U C42G | 0.03 |
| C8U A14G C31U U43C G44U | 0.06 |
| C8U A14G G27U U43C | 0.24 |
| C8U A14G U20C A41G G44C | 0.02 |
| C8U A14U A26G G44C | 0.03 |
| C8U A14U C18A G36C | 0.05 |
| C8U A14U C31U A41U C42A | 0 |
| C8U A14U G22C G33U G40A | 0.07 |
| C8U A14U G22U C23A G27A | 0.03 |
| C8U A14U G33A G35A | 0.02 |
| C8U A14U U32A U34G | 0.05 |
| C8U A16C A26G G35U | 0.14 |
| C8U A16C C18G A24U A25C G30C | 0.01 |
| C8U A16C C18U G30U | 0.03 |
| C8U A16C G17U | 0.03 |
| C8U A16C G17U C31A | 0.04 |
| C8U A16C G27C C31A | 0.02 |

| Variant | self-cleavage |
| --- | --- |
| C8U A16C G30A C31U | 0.13 |
| C8U A16C G35C C46A | 0.02 |
| C8U A16C G36U | 0.01 |
| C8U A16G G21U | 1.58 |
| C8U A16G G44A | 0.1 |
| C8U A16G U20C | 0.08 |
| C8U A16G U28A G33C | 0.06 |
| C8U A16U A25G G40C C46U | 0.04 |
| C8U A16U C18A G21U G40C | 0 |
| C8U A16U G17C U34C A39U U43A | 0.06 |
| C8U A24C A25U G29C | 0.03 |
| C8U A24C A39C | 0.04 |
| C8U A24G U34G | 0.13 |
| C8U A24G U38A | 0.28 |
| C8U A24U A26G U28C G40C | 0.27 |
| C8U A24U A39G | 0.02 |
| C8U A24U C42U G44U | 0.22 |
| C8U A24U G30C C46U | 0.12 |
| C8U A25C G27A | 0.1 |
| C8U A25C G29U | 0.71 |
| C8U A25C G33U | 0.11 |
| C8U A25G C42A U43C | 0.1 |
| C8U A25U G33U C42G | 0.16 |
